Reference: publication PMC12222028
No constants are given. Whether binding was seen depends on the method and setting. For some of these results: Binding seen in cells or lysates may run through a third protein. Some results given as binding are weak or reduced against the parent protein; the word gives no strength. For some of these results: Where a sequence is shown, tags or fusion partners need not be part of it. Values belong to the binder of their own block, whether it stands above or below them.

Columns and labels:
HA–TMEM230 (human) = target: T1, HA–TMEM230 (human) (UniProt Q96A57); assay: co-IP; HEK293 cells transfected with tagged proteins; 0.5% DDM, 25 mM HEPES pH 7.4, 150 mM NaCl; anti-HA or anti-Flag magnetic beads; immunoblot
T1 sequence: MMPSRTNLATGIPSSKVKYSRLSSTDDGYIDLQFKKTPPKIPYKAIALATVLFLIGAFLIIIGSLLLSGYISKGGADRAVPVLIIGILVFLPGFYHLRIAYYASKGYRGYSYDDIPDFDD

[1] = target: T2, HA–TMEM230(Y29C/R78L/X121W) (human) (UniProt Q96A57); assay: as above
T2 sequence: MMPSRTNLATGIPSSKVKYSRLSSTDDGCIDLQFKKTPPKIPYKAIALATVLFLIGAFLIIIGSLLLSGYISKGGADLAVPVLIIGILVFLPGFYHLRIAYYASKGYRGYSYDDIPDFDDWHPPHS

[2] = target: T3, ATP11B (human (endogenous in HEK293)) (UniProt Q9Y2G3); assay: native gel or EMSA; BN-MS: 0.5% DDM extract of purified early endosomes (HEK293) on a 4-16% NativePAGE gel, 48 slices, DIA mass spectrometry; co-fractionation profiles
T3 sequence: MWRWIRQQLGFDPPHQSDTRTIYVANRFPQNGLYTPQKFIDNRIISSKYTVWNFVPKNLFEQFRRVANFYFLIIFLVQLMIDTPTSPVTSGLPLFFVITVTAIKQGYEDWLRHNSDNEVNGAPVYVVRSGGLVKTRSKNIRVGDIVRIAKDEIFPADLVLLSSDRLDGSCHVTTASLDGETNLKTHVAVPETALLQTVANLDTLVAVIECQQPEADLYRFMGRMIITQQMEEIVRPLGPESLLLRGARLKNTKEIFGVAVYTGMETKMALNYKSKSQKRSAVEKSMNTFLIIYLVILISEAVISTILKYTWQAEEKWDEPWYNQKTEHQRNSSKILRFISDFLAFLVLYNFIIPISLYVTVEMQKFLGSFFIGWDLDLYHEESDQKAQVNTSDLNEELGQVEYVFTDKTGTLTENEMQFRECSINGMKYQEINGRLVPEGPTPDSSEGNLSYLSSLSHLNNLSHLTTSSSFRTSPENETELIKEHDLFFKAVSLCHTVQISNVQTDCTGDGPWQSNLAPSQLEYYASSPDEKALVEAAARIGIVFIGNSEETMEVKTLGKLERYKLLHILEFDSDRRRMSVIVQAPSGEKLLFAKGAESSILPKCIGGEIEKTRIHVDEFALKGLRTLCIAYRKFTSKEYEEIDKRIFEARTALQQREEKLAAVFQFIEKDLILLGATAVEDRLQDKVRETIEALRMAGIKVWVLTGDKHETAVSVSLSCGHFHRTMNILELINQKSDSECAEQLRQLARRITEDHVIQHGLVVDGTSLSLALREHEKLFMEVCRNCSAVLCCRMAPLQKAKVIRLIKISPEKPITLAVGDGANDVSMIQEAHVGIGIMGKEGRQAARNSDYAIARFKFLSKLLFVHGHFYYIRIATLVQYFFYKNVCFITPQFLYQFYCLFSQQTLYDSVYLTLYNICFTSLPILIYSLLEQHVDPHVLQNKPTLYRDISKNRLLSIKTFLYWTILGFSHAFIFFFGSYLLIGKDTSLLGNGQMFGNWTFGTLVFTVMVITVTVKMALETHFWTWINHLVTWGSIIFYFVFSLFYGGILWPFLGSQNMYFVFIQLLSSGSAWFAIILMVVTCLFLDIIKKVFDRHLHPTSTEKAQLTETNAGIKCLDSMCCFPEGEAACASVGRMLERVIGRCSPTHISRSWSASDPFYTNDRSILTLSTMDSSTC

Flag–ATP11B (human) = target: T4, Flag–ATP11B (human) (UniProt Q9Y2G3); assay: co-IP; HEK293 cells transfected with tagged proteins; 0.5% DDM, 25 mM HEPES pH 7.4, 150 mM NaCl; anti-HA or anti-Flag magnetic beads; immunoblot
T4 sequence: T3 sequence

binding [2]: binds
B2: TMEM30A (protein, UniProt Q9NV96 1-361)
chain: MAMNYNAKDEVDGGPPCAPGGTAKTRRPDNTAFKQQRLPAWQPILTAGTVLPIFFIIGLIFIPIGIGIFVTSNNIREIEIDYTGTEPSSPCNKCLSPDVTPCFCTINFTLEKSFEGNVFMYYGLSNFYQNHRRYVKSRDDSQLNGDSSALLNPSKECEPYRRNEDKPIAPCGAIANSMFNDTLELFLIGNDSYPIPIALKKKGIAWWTDKNVKFRNPPGGDNLEERFKGTTKPVNWLKPVYMLDSDPDNNGFINEDFIVWMRTAALPTFRKLYRLIERKSDLHPTLPAGRYSLNVTYNYPVHYFDGRKRMILSTISWMGGKNPFLGIAYIAVGSISFLLGVVLLVINHKYRNSSNTADITI

binding (HA–TMEM230 (human)): binds | binding (Flag–ATP11B (human)): binds | binding [1]: no binding
B3: TMEM30A–V5 (protein, UniProt Q9NV96 1-361)
chain: B2 chain

Continued, binder first:

B1: Flag–ATP11B (protein, UniProt Q9Y2G3 1-1177)
chain: T3 sequence
binding (HA–TMEM230 (human)): binds | binding [1]: no binding

B4: HA–TMEM230 (protein, UniProt Q96A57 1-120)
chain: T1 sequence
binding (Flag–ATP11B (human)): binds
